Measured values from the supplement of paper PMC12645437, “Orthogonal IMiD-Degron Pairs Induce Selective Protein Degradation in Cells” (ACS Chemical Biology, 2025).
The list shows a part of the results.

These sequences were tested against no compound (DMSO) (assay: log2 fold change of degron read counts, EGFP-low vs EGFP+ sorted cells; higher = lower degron-EGFP level without compound (poor expression or instability)). Conditions: compound: DMSO control; 18 h.
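Note: jurkat cells carrying a lentiviral library of mutant zinc finger degrons fused to EGFP plus mCherry, mCherry+ cells FACS sorted, degron abundance counted by next-generation sequencing.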

Row | Sequence | log2 fold change of degron read counts
1 | FNCNICGANFTQKGNLLRHIKL | -0.745
2 | FTCDICGAKFTQKGNLLRHIKL | -1.08
3 | FGCEICGHSFTQKGNLLRHIKL | -1.17
4 | FNCNQCGADFTQKGNLLRHIKL | -0.62
5 | FACDQCGAVFTQKGNLLRHIKL | -0.585
6 | FMCPVCGAEFTQKGNLLRHIKL | -1.05
7 | FDCPICGAKFTQKGNLLRHIKL | -0.585
8 | FSCSVCGHGFTQKGNLLRHIKL | -0.343
9 | FQCSVCGHNFTQKGNLLRHIKL | -1.02
10 | LYCPICGFFCTQKGNLLRHIKL | 1.92
11 | LICPICGFPCTQKGNLLRHIKL | 1.93
12 | FMCNQCGHKFTQKGNLLRHIKL | -0.241
13 | FGCNQCGHWFTQKGNLLRHIKL | 1.91
14 | FICSVCGHSFTQKGNLLRHIKL | -1.15
15 | FECPICGAGFTQKGNLLRHIKL | -0.843
16 | FNCNVCGAQFTQKGNLLRHIKL | -0.791

Row | Sequence | log2 fold change of degron read counts
17 | FKCSVCGHYFTQKGNLLRHIKL | 0.274
18 | LLCEICGFDCTQKGNLLRHIKL | -1.06
19 | FSCEICGALFTQKGNLLRHIKL | -1.36
20 | FWCDQCGALFTQKGNLLRHIKL | 0.512
21 | FSCPVCGALFTQKGNLLRHIKL | -0.291
22 | FFCNQCGHRFTQKGNLLRHIKL | 0.42
23 | FMCPICGRMFTQKGNLLRHIKL | 0.582
24 | FVCNICGATFTQKGNLLRHIKL | -0.921
25 | LICEICGFACTQKGNLLRHIKL | -0.382
26 | FSCNQCGHMFTQKGNLLRHIKL | 0.0698
27 | FVCPICGHAFTQKGNLLRHIKL | -0.743
28 | FTCPICGRIFTQKGNLLRHIKL | -0.0841
29 | FDCDVCGAVFTQKGNLLRHIKL | -2.2
30 | FDCPICGRMFTQKGNLLRHIKL | 0.496
31 | FCCDVCGAMFTQKGNLLRHIKL | -2.13
32 | FECSVCGHIFTQKGNLLRHIKL | -0.947
